The record followed here is ChEMBL document CHEMBL1201862, “PubChem BioAssay data set” (2004).

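Test compounds were applied to cells in 96-well plates for 48 hours at 5 doses. GI50: concentration for 50% inhibition of growth.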 The source made the active and inactive calls. Rule as the data show it: active = GI50 up to about 1.1 µM and inactive = higher.

This assay relates to NCI-H322M. As to the kind of experiment: growth of human tumour cells (NCI), 48 h.
Consider `Cc1cc(=O)oc2cc(O)c(CN(C)CC(=O)O)cc12`, for which the GI50 is inactive: > 100 µM.

As for `Cc1ncn(-c2ccccc2O)c1C`, the GI50 was inactive: > 100 µM.

For `O=c1c2cc(Br)ccc2[nH]c(=S)n1-c1ccccc1`, the GI50 was inactive: > 100 µM.

Turning to `O=C(CN1C(=O)c2ccccc2C1=O)NC1(C(=O)O)CCCC1`, the GI50 was inactive: > 100 µM.

For the compound `CCOC(=O)C(COS(C)(=O)=O)(COS(C)(=O)=O)C(=O)OCC`, the GI50 was inactive: > 100 µM.

Take `CCOC(=O)C1(C#N)C2(C#N)C(N)=NC(ON=C(C)C)(ON=C(C)C)C12C#N` (stereo not drawn): the GI50 is inactive: > 100 µM.

Take `COc1cc(C2c3cc4c(cc3OC(Nc3ccccc3)C2C)OCO4)cc(OC)c1OC` (stereo not drawn): the GI50 is active: 0.305 µM.

Turning to `C=CCCCC(C#N)(c1ccccc1)N1CCCC1` (stereo not drawn), the GI50 was inactive: > 100 µM.

For the compound `COc1cc2c(c(OC)c1OC)C(=O)[C@H](O)[C@H]2NC(N)=O`, the GI50 was inactive: 75.3 µM.

For the compound `CC1=C(C(=O)CC(=O)C(=O)Nc2ccccc2C(F)(F)F)Sc2ccccc2N1`, the GI50 was inactive: 31.3 µM.

Turning to `O=C1N/C(=N/N=C\C(O)C(O)C(O)C(O)CO)N/C1=C/c1ccc(Cl)cc1` (stereo not drawn), the GI50 was inactive: > 100 µM.

Consider `COc1ccc(-c2nnc(CCCCCCCCc3nnc(-c4ccc(OC)cc4)o3)o2)cc1`, for which the GI50 is inactive: > 100 µM.

`COC(=O)C1(Cc2ccccc2)Cc2ccc3c(c2C1=O)CCC3` (stereo not drawn): the GI50 was inactive: 41.6 µM.

Consider `COc1ccc(NC(C)=O)cc1N1C(=O)/C(=C\c2cccc(Oc3ccccc3)c2)SC1c1ccccc1` (stereo not drawn), for which the GI50 was inactive: 99.8 µM.

For the compound `O=C(O)c1ccc(O)c(/N=N/c2cc(S(=O)(=O)O)c3ccccc3c2O)c1`, the GI50 was inactive: > 100 µM.

Take `O=C(Nc1cc(Cl)c(Cl)cc1Cl)C(=O)C(C(=O)c1ccc(Cl)c(Cl)c1)C1OC(=O)c2ccccc21` (stereo not drawn): the GI50 is inactive: 19.2 µM.

As for `O=c1nc(NC2CCCCO2)ccn1CCO` (stereo not drawn), the GI50 was inactive: > 100 µM.

Regarding `NC(Cc1ccccc1)C(=O)NC(Cc1ccccc1)NC(=O)C(Cc1c[nH]c2ccccc12)C(=O)O` (stereo not drawn), the GI50 is inactive: > 100 µM.

With `O=S1(=O)NN=C(NCc2ccc(F)cc2)c2ccccc21`, the GI50 was inactive: > 100 µM.

For the compound `COc1cc(/C=C\c2nnc(/C=C\c3ccc(O)c(OC)c3)s2)ccc1O`, the GI50 is inactive: 7.96 µM.

In the case of `CC1CC2C3CCC4=CC(=O)C=CC4(C)C3(F)C(O)CC2(C)C1(O)C(=O)CO.Cc1cc(NS(=O)(=O)c2ccc(/N=N\c3cc(/N=N/c4ccc(S(=O)(=O)Nc5cc(C)nc(C)n5)cc4)c(OC(=O)C(Cl)Cl)c4cccc(NC(=O)C(Cl)Cl)c34)cc2)nc(C)n1`, the GI50 is inactive: 20.4 µM.

For the compound `C=C1COC(O)(C2OCOC(C3CC(=O)NC(=O)C3)C2O)C1C` (stereo not drawn), the GI50 was active: 0.00641 µM.

As to `CN(C)CCCSc1nc2c(c(=N)n1-c1ccccc1)c(=S)n(-c1ccccc1)c(=S)n2-c1ccccc1`, the GI50 was inactive: 1.93 µM.

As to `CC1=C2c3ccccc3N(S(=O)(=O)c3ccccc3)[C@H]2[C@H](C(=O)N2C3CC4CC[C@@]3(CS2(=O)=O)C4(C)C)CC1` (stereo partly drawn), the GI50 is inactive: 68.1 µM.

With `CC(=O)OCC1=CC2OC(=O)C3=COC(OC4OC(CO)C(O)C(O)C4O)C1C32` (stereo not drawn), the GI50 was inactive: > 100 µM.

As to `Cc1sc(NC=C2C(=O)CC(C)(C)CC2=O)nc1-c1ccccc1`, the GI50 was inactive: > 100 µM.

Turning to `C=C1CC2(CC(c3ccccc3Cl)OC(c3ccccc3Cl)C2)OC1=O` (stereo not drawn), the GI50 is inactive: 9.71 µM.

As to `C=CCCC1(CC(Sc2ccccc2)P(=O)(c2ccccc2)c2ccccc2)OCCO1` (stereo not drawn), the GI50 was inactive: > 10 µM.

Consider `CN(C)Cc1cc(C(=O)/C=C/c2ccc(/C=C/C(=O)c3cc(CN(C)C)c(O)c(CN(C)C)c3)cc2)cc(CN(C)C)c1O`, for which the GI50 is inactive: 39.4 µM.

As to `CNC(=S)/C(=N\Nc1[nH]cnc1C(N)=O)C(N)=S`, the GI50 was inactive: 12.1 µM.

Take `OC1OC(c2ccc[nH]2)C(F)(F)C(F)(F)C1(F)F` (stereo not drawn): the GI50 is inactive: > 100 µM.

Take `CCOc1nc(OCC)nc(-c2cccn2-c2ccccc2)n1`: the GI50 is inactive: > 100 µM.

With `Cc1ccc(CC[PH](=O)CCc2ccc(C)nc2)cn1`, the GI50 is inactive: > 100 µM.

For `COc1cc(Cl)cc(N(O)C(C)=O)c1OCc1ccccc1`, the GI50 is inactive: 57.9 µM.

With `CCOC(=O)C1=CNC2=N[C@H]3CCCC[C@@H]3N2C1=O`, the GI50 is inactive: > 100 µM.

With `Cc1cc(C)c2c(O)c(S(=O)(=O)c3ccc(Cl)cc3)c(=O)oc2c1`, the GI50 is inactive: 72.6 µM.

For the compound `Cn1/c(=N\S(=O)(=O)c2ccccc2)n(S(=O)(=O)c2ccccc2)c2ccccc21`, the GI50 was inactive: 33.5 µM.

`CC(CN1CCN(CC(C)Nc2ccnc3cc(Cl)ccc23)CC1)Nc1ccnc2cc(Cl)ccc12` (stereo not drawn): the GI50 was inactive: 3.13 µM.

In the case of `CCOC(=O)n1cncc1CC(NC(=O)Cc1c(C(=O)C=C(C)C)[nH]c2ccccc12)C(=O)OC` (stereo not drawn), the GI50 was inactive: 16.6 µM.

For `CC(C)NC(=O)N(Nc1ccccc1)C(C)(C)C`, the GI50 is inactive: > 100 µM.

Consider `CCCC(=O)OCC(O)CO` (stereo not drawn), for which the GI50 was inactive: > 5000 µM.

On to `CC12CCC3=C(CSC4=C3CSc3ccccc34)C1=CCCC2=O` (stereo not drawn), for which the GI50 was inactive: > 100 µM.

With `CC(=O)O[C@H]1CC[C@H]2[C@@H]3CCC4=C(C(=O)C=CC4(C)OC(C)=O)[C@H]3CC[C@]12C` (stereo partly drawn), the GI50 is inactive: 85.5 µM.

Regarding `O=C(Cn1c(C(=O)/C=C/c2ccco2)nc2ccccc21)c1ccc(Cl)cc1`, the GI50 is inactive: 27.3 µM.

Turning to `Cc1c(C(=O)C/C(=N\O)C(=O)Nc2cc(Cl)c(Cl)cc2Cl)[n+]([O-])c2ccccc2[n+]1[O-]`, the GI50 is inactive: 25.5 µM.

In the case of `C/C=C(/C)C(=O)O[C@H]1C[C@@H]2[C@@H](O)c3occ(C)c3C[C@]2(C)[C@@H](C)C1`, the GI50 is inactive: 20.1 µM.

For the compound `CN(C)CCNC(=O)c1c2ccccc2cc2ccccc12`, the GI50 is inactive: 55.8 µM.

With `Nn1c(SCC(=O)NCc2ccccc2)nc2ccccc2c1=O`, the GI50 was inactive: 37.5 µM.

Take `C[Si](C)(C)/C=C/CCC(C=O)(CCCl)c1ccccc1` (stereo not drawn): the GI50 is inactive: 33.3 µM.

As for `OC(C1CO1)C(O)C1CO1` (stereo not drawn), the GI50 was inactive: 138 µM.

Turning to `COc1ccc(/C=C2\CSC/C(=C\c3ccc(OC)c(OC)c3OC)C2=O)c(OC)c1OC`, the GI50 is inactive: > 100 µM.

Take `O=C1C=C2CO[C@H]3OC[C@H](O)[C@@H]1[C@@H]23`: the GI50 is inactive: > 100 µM.

Regarding `CC1=C(C(=O)Nc2ccccc2C)C(c2ccc([N+](=O)[O-])cc2)C(C(=O)Nc2ccccc2C)=C(C)N1`, the GI50 is inactive: 82.8 µM.

Turning to `CCc1ncc(C(C)(O)c2ccccc2)n1Cc1ccccc1` (stereo not drawn), the GI50 is inactive: 35.5 µM.

As for `N#CC1=C(N)OC2=C(CCCc3ccc([N+](=O)[O-])cc32)C1c1ccc(Cl)cc1` (stereo not drawn), the GI50 is inactive: 10.7 µM.

On to `N/N=C1\CCCc2c1no[n+]2[O-]`, for which the GI50 is inactive: > 100 µM.

For `O=C(NO)NCCCl`, the GI50 was inactive: > 100 µM.

In the case of `CCOC(=O)c1cccc(=O)c(C(=O)OCC)c1`, the GI50 is inactive: 41.4 µM.

Turning to `O=c1c2ncn(C3CC(O)C(CO)O3)c2nnn1Cc1ccccc1[N+](=O)[O-]` (stereo not drawn), the GI50 was inactive: > 100 µM.

Take `O=CC1C(=O)Nc2nc3ccccc3n2C1c1ccccc1` (stereo not drawn): the GI50 is inactive: 16.1 µM.

Regarding `CCN(CC)C(=S)N/N=C(/c1ccccc1)c1ccccn1`, the GI50 was active: 0.216 µM.

For `N=C(N)NS(=O)(=O)c1ccc(NC(=O)c2cccc3cc4ccccc4nc23)cc1`, the GI50 was inactive: 40.2 µM.

Turning to `COC(=O)C1(NC(=O)C(CC(=O)OCc2ccccc2)NC(=O)OCc2ccccc2)CCCCCC1` (stereo not drawn), the GI50 is inactive: > 100 µM.

Turning to `COc1ccc(NCc2cccc3c(=O)c4ccc(Cl)cc4oc23)cc1`, the GI50 was inactive: > 100 µM.

Take `Cc1ccc(/N=c2/oc3c(ccc4ccccc43)nc2Nc2ccc(C)cc2)cc1`: the GI50 was inactive: > 100 µM.

`CCN(CC)CC/N=c1\c2cc(OC)ccc2[nH]c2c([N+](=O)[O-])ccc(NCCN(CC)CC)c12`: the GI50 is inactive: 1.3 µM.

For the compound `Cc1ccc2c(c1)C(=O)c1ccc(C)nc1C2=O`, the GI50 was inactive: 23 µM.

`CN(C)/N=C1/CCC(C(F)(F)F)(C(F)(F)F)O1`: the GI50 was inactive: 38.8 µM.

On to `COc1cc(C2c3cc4c(cc3[C@@H](Nc3ccc(N)cc3)C3COC(=O)[C@H]23)OCO4)cc(OC)c1O` (stereo partly drawn), for which the GI50 was inactive: 8.32 µM.

As to `C=C1C(O)C[C@H](OC(C)=O)[C@]2(C)C1C(OC(C)=O)[C@]1(C(C)(C)O)CC(O)C(C)=C1[C@@H](OC(=O)c1ccccc1)C2OC(C)=O` (stereo partly drawn), the GI50 is inactive: > 10 µM.

As to `COc1cc2cc(C(=O)N3CC(CCl)c4ccc([N+](=O)[O-])cc43)[nH]c2c(OC)c1OC` (stereo not drawn), the GI50 is inactive: > 100 µM.

Consider `CCc1nc(N)nc(N)c1-c1ccc(Cl)c(N=[N+]=[N-])c1`, for which the GI50 was inactive: 11.5 µM.

For `C=C(C)[C@@H]1CC[C@]2(C(=O)O)CC[C@]3(C)[C@H](CCC4[C@@]5(C)CC[C@H](C(=O)/C=C/c6ccc(O)c(O)c6)C(C)(C)[C@@H]5CC[C@]43C)[C@@H]12` (stereo partly drawn), the GI50 was inactive: 10.7 µM.

Take `COc1cc2cc[n+](C)c(Cc3ccc(Oc4cc(Cc5c6cc(OC)c(OC)cc6cc[n+]5C)ccc4OC)cc3)c2cc1OC`: the GI50 was inactive: > 100 µM.

For `CC(=O)O[C@H]1C(=O)[C@@]2(C)[C@H]([C@H](OC(=O)c3ccccc3)[C@]3(O)C[C@H](OC(=O)[C@H](O)[C@@H](NC(=O)c4cccc(N=[N+]=[N-])c4)c4ccccc4)C(C)=C1C3(C)C)[C@]1(OC(C)=O)CO[C@@H]1C[C@@H]2O`, the GI50 is active: 0.00897 µM.

Regarding `CC(NNC(=O)c1ccncc1)c1ccc(F)cc1` (stereo not drawn), the GI50 was inactive: > 100 µM.

With `O=C1C2C3C=CC(C2C(=O)N1CN1CCOCC1)C1C2C(=O)N(CN4CCOCC4)C(=O)C2C31` (stereo not drawn), the GI50 was inactive: > 100 µM.

For `COc1ccc(/C=C(/C(=O)O)c2cc(OC)c(OC)c(OC)c2)cc1`, the GI50 is inactive: 75.2 µM.
